The text below walks through data of patent publication US11618753B2 (priority 2018, dated 2023).

This test concerns MLKL phosphorylation, HT29-L23 human colorectal adenocarcinoma cells. In words: cells. The settings on record: read-out: pMLKL HCS Cell Assay (IC50, uM).
On to `Nc1ncnn2c(-c3cnc(F)c(C(=O)NCCC(O)c4ccc(F)cc4)c3)cc(C(F)(F)F)c12` (centres unmarked) [Example 272, 5-[4-amino-5-(trifluoromethyl)pyrrolo[2,1-f][1,2,4]triazin-7-yl]-2-fluoro-N-[3-(4-fluorophenyl)-3-hydroxypropyl] pyridine-3-carboxamide], for which the IC50 turned out to be 0.0083 µM.

Take `COc1c(F)cc(-c2cc(C(F)(F)F)c3c(N)ncnn23)cc1C(=O)N[C@@H]1CN(C(=O)C2CC(F)(F)C2)C[C@@H]1F` [Example 684, 5-[4-amino-5-(trifluoromethyl)pyrrolo[2,1-f][1,2,4]triazin-7-yl]-N-[(3R,4S)-1-(3,3-difluorocyclobutanecarbonyl)-4-fluoropyrrolidin-3-yl]-3-fluoro-2-methoxybenzamide]: the IC50 worked out at 0.044 µM.

On to `Cc1ncc(-c2cc(C(F)(F)F)c3c(N)ncnn23)cc1C(=O)N[C@@H]1CN(C(=O)[C@H](O)CC(C)C)C[C@@H]1F` [Example 368, 5-[4-amino-5-(trifluoromethyl)pyrrolo [2,1-f][1,2,4]triazin-7-yl]-N-[(3R,4S)-4-fluoro-1-[(2R)-2-hydroxy-4-methylpentanoyl]pyrrolidin-3-yl]-2-methylpyridine-3-carboxamide], for which the IC50 was 0.056 µM.

Regarding `COc1ncc(-c2cc(F)c3c(N)ncnn23)cc1C(=O)N[C@@H]1CN(C(=O)[C@@](C)(O)C(F)(F)F)C[C@@H]1F` [Example 1605, 5-{4-amino-5-fluoropyrrolo[2,1-f][1,2,4]triazin-7-yl}-N-[(3R,4S)-4-fluoro-1-[(2R)-3,3,3-trifluoro-2-hydroxy-2-methylpropanoyl]pyrrolidin-3-yl]-2-methoxypyridine-3-carboxamide], the IC50 was determined as 0.0084 µM.

Regarding `COc1ncc(-c2c(F)cc3c(N)ncnn23)cc1C(=O)N[C@@H]1CN(C(=O)C2CC(F)(F)C2)C[C@@H]1F` [Example 508, 5-{4-amino-6-fluoropyrrolo[2,1-f][1,2,4]triazin-7-yl}-N-[(3R,4S)-1-(3,3-difluorocyclobutanecarbonyl)-4-fluoropyrrolidin-3-yl]-2-methoxypyridine-3-carboxamide], the IC50 came out at 0.11 µM.

Turning to `CC(C)(F)C(=O)N1C[C@H](F)[C@H](NC(=O)c2cc(-c3cc(C(F)(F)F)c4c(N)ncnn34)c(F)cc2Cl)C1` [Example 401, 5-[4-amino-5-(trifluoromethyl)pyrrolo[2,1-f][1,2,4]triazin-7-yl]-2-chloro-4-fluoro-N-[(3R,4S)-4-fluoro-1-(2-fluoro-2-methyl-propanoyl)pyrrolidin-3-yl] benzamide], the IC50 was found to be 0.027 µM.

As to `CCOc1ccc(-c2cc(C(F)(F)F)c3c(N)ncnn23)cc1C(=O)N[C@@H]1CN(C(=O)CC(F)(F)F)C[C@@H]1F` [Example 1097, 5-[4-amino-5-(trifluoromethyl)pyrrolo[2,1-f][1,2,4]triazin-7-yl]-2-ethoxy-N-[(3R,4S)-4-fluoro-1-(3,3,3-trifluoropropanoyl)pyrrolidin-3-yl]benzamide], the IC50 was 0.31 µM.

Regarding `COc1ncc(-c2cc(CN3CCC(F)(F)CC3)c3c(N)ncnn23)cc1C(=O)N[C@@H]1CN(C(=O)OCC(C)(C)C)C[C@@H]1F` [Example 1514, 2,2-dimethylpropyl (3R,4S)-3-(5-{4-amino-5-[(4,4-difluoropiperidin-1-yl)methyl]pyrrolo[2,1-f][1,2,4]triazin-7-yl}-2-methoxypyridine-3-amido)-4-fluoropyrrolidine-1-carboxylate], the IC50 turned out to be 0.0048 µM.

Take `Nc1ncnn2c(-c3cccc(C(=O)N[C@@H]4CN(C(=O)c5ccccc5F)C[C@@H]4F)c3)cc(CN3CC(F)(F)C3)c12` [Example 1171, 3-{4-amino-5-[(3,3-difluoroazetidin-1-yl)methyl]pyrrolo[2,1-f][1,2,4]triazin-7-yl}-N-[(3R,4S)-4-fluoro-1-(2-fluorobenzoyl)pyrrolidin-3-yl]benzamide]: the IC50 came to 0.0013 µM.

Consider `COc1ncc(-c2cc(C(F)(F)F)c3c(N)ncnn23)cc1C(=O)NCCC(O)c1ccc(F)cc1` (centres unmarked) [Example 125, 5-[4-amino-5-(trifluoromethyl)pyrrolo[2,1-f][1,2,4]triazin-7-yl]-N-[3-(4-fluorophenyl)-3-hydroxypropyl]-2-methoxypyridine-3-carboxamide], for which the IC50 was 0.005 µM.

For `COc1ncc(-c2cc(C(F)(F)F)c3c(N)ncnn23)cc1C(=O)NC1CN(Cc2cccc(C)n2)CC1F` (racemic) [Example 205, 5-[4-amino-5-(trifluoromethyl)pyrrolo[2,1-f][1,2,4]triazin-7-yl]-N-{4-fluoro-1-[(6-methylpyridin-2-yl)methyl]pyrrolidin-3-yl}-2-methoxypyridine-3-carboxamide], the IC50 turned out to be 0.022 µM.

In the case of `Nc1ncnn2c(-c3ccc(OC(F)F)c(C(=O)N[C@@H]4CN(C(=O)C5(F)CC5)C[C@@H]4F)c3)cc(C(F)(F)F)c12` [Example 1079, 5-[4-amino-5-(trifluoromethyl)pyrrolo[2,1-f][1,2,4]triazin-7-yl]-2-(difluoromethoxy)-N-[(3R,4S)-4-fluoro-1-(1-fluorocyclopropanecarbonyl)pyrrolidin-3-yl]benzamide], the IC50 turned out to be 0.04 µM.

Take `Cc1ccc(-c2cc(C(F)(F)F)c3c(N)ncnn23)cc1C(=O)N[C@@H]1CN(C(=O)c2cscn2)C[C@@H]1F` [Example 1004, 5-[4-amino-5-(trifluoromethyl)pyrrolo[2,1-f][1,2,4]triazin-7-yl]-N-[(3R,4S)-4-fluoro-1-(1,3-thiazole-4-carbonyl)pyrrolidin-3-yl]-2-methylbenzamide]: the IC50 came out at 0.017 µM.

Regarding `Nc1ncnn2c(-c3cc(C(=O)N[C@@H]4CN(C(=O)C5CC(F)(F)C5)C[C@@H]4F)c(Cl)cc3F)cc(C(F)(F)F)c12` [Example 406, 5-[4-amino-5-(trifluoromethyl)pyrrolo[2,1-f][1,2,4]triazin-7-yl]-2-chloro-N-[(3R,4S)-1-(3,3-difluorocyclobutanecarbonyl)-4-fluoropyrrolidin-3-yl]-4-fluorobenzamide], the IC50 stood at 0.01 µM.

`Cc1ncc(-c2cc(C(F)(F)F)c3c(N)ncnn23)cc1C(=O)Nc1cnn(CC(C)(O)C(F)(F)F)c1` (centres unmarked) [Example 1789, 5-(4-amino-5-(trifluoromethyl)pyrrolo[2,1-f][1,2,4]triazin-7-yl)-2-methyl-N-(1-(3,3,3-trifluoro-2-hydroxy-2-methylpropyl)-1H-pyrazol-4-yl)nicotinamide]: the IC50 was 0.067 µM.

With `COc1c(F)cc(-c2cc(C(F)(F)F)c3c(N)ncnn23)cc1C(=O)N[C@@H]1CN(C(=O)c2ccc(F)cc2)C[C@@H]1F` [Example 683, 5-[4-amino-5-(trifluoromethyl)pyrrolo[2,1-f][1,2,4]triazin-7-yl]-3-fluoro-N-[(3R,4S)-4-fluoro-1-(4-fluorobenzoyl)pyrrolidin-3-yl]-2-methoxybenzamide], the IC50 was 0.034 µM.

As to `Cc1ncc(-c2cc(C(F)(F)F)c3c(N)ncnn23)cc1C(=O)Nc1cnn(C(C)c2ccc(F)cc2)c1` (centres unmarked) [Example 1777, 5-(4-amino-5-(trifluoromethyl)pyrrolo[2,1-f][1,2,4]triazin-7-yl)-N-(1-(1-(4-fluorophenyl)ethyl)-1H-pyrazol-4-yl)-2-methylnicotinamide], the IC50 is 0.00055 µM.

The IC50 is the concentration needed to halve the response being measured.
